# Assay results reported in the supplement of paper PMC3334620.
# Whole data set: some 33,000 sequences, median “E-score (-0.5 to 0.5)” near -0.013, cut for the highest 2% near 0.3. Some of the results follow.
# Molecular target: T1, Msn1 (UniProt P22148)
# T1 sequence: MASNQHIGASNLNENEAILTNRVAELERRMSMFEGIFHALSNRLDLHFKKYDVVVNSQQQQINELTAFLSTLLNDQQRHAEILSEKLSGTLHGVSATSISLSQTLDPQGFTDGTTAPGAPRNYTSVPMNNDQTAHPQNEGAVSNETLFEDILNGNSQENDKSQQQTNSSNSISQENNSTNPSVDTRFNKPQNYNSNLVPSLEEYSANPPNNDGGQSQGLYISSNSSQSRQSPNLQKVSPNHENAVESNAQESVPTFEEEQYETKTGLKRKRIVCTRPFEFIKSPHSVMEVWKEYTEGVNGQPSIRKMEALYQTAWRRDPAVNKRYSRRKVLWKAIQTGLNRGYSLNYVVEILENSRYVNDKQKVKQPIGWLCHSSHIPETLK
# Test: PBM E-score (8-mer binding enrichment) (E-score (-0.5 to 0.5)); higher = stronger / more preferred TF binding; most listed sequences are background and not binding sites
# Settings: protein concentration: 200 nM; construct: GST-full length
# Procedure, shortened: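 Using PURExpress in vitro transcription/translation, GST-tagged yeast transcription factors were made in full-length or DNA-binding-domain form. These were applied at about 100-200 nM to double-stranded universal all-10-mer Agilent arrays, and bound protein was detected with fluorescent anti-GST. Scans were normalised with masliner before the Universal PBM Analysis Suite assigned E-scores to ungapped eight-base words pooled with their reverse complements.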
row,Sequence,PBM E-score
1,TCGACGAA,0.118
2,CGCACCCG,-0.0496
3,GAGCGTGC,-0.0256
4,AGCAGATC,0.0261
5,ATATTTGC,0.111
6,ATCGCAGG,-0.112
7,GGATTCTA,0.102
8,ATTGAGAC,0.235
9,CACTTTAG,-0.143
10,GGATGTAA,0.066
11,ATCTGTTC,-0.117
12,CTCGTAGC,-0.0948
13,AGACGCAA,0.0196
14,AAATAACG,0.104
15,GCAGAGGC,-0.241
16,CGGGCGAG,0.0181
17,ATCGCCTG,0.0274
18,GGGCAGAA,0.0819
19,TGTGCAAA,0.0609
20,CATATCTA,0.157
21,CCGAAATC,0.132
22,CGTCTTAC,-0.095
23,CCCTTACG,-0.0794
24,AGCGGGTA,-0.0997
25,GGCTCAAC,-0.206

row,Sequence,PBM E-score
1,TGTTGGAA,0.198
2,CATGCCCC,-0.119
3,CGTCTCCC,-0.0955
4,AACACGCA,-0.0633
5,AGTACAAT,0.29
6,GCATGCGC,0.0395
7,AGACTTGA,0.0271
8,GACGGTGA,-0.0612
9,CCATTCGA,-0.0308
10,CGTAGAGC,0.0354
11,GCAACCAA,0.0319
12,CTTCCCAC,-0.118
13,ATCGACGG,-0.0525
14,TCAACGCA,0.106
15,GACCCTCC,-0.0933
16,AGAACTAA,0.0859
17,GGAACACC,0.019
18,GGCTCTAC,-0.154
19,TAAGACAA,0.395
20,AAGATGTA,0.037
21,CATAATTA,0.149
22,CTCCGAGC,0.0263
23,ACGGGTTC,-0.0606
24,ACCCTAAT,-0.19
25,CGGATCAA,0.0427

row,Sequence,PBM E-score
1,CCGCCGCA,-0.138
2,CGTCCACA,0.188
3,CTCTCATC,-0.158
4,CCCGGATA,-0.023
5,GGCAAATA,0.0262
6,CATCGGGA,0.192
7,ACACCGAC,0.0822
8,ATGATTTA,0.126
9,GTCCCATA,0.199
10,CAGGAGGG,-0.206
11,CGGACACC,0.112
12,TAGTCTGA,0.0387
13,AGCGGAGC,-0.134
14,GTCCGACA,0.322
15,GGGCGTTA,0.0501
16,TATCACGA,-0.00709
17,ATATAAGG,0.151
18,CCATCAGG,-0.174
19,ACAAACCT,0.1
20,AATTTCAA,0.131
21,GTAAGAAC,0.106
22,CTCGTAAC,-0.0299
23,GTATGCTA,-0.168
24,CCGCTAGG,-0.213
25,CACCACAA,0.085

row,Sequence,PBM E-score
1,GTAATATA,0.191
2,AACCTTCT,-0.205
3,CGGGCACG,-0.161
4,ACTGGGCA,-0.224
5,ACGTCGCA,-0.00026
6,GCGCAATA,-0.0411
7,ATCAGGGG,-0.308
8,GGCACATA,0.0901
9,AGAAGGGC,-0.101
10,GTGTCCCA,0.439
11,AGGTCGAG,-0.177
12,GGAGGCAA,-0.243
13,CAGCGAAC,-0.112
14,CACACACG,0.0525
15,AGAGATAA,0.0317
16,AGTTTTTC,0.0155
17,CGTGGACC,-0.0578
18,AACGCAGA,0.00295
19,ATCGGCTG,0.0357
20,GGGCTGAA,-0.0218
21,ATCGATTC,-0.0167
22,CGTTGCCA,0.0653
23,CCCTTTTA,-0.00272
24,CGGACTAG,0.0298
25,GCCATACC,-0.187

row,Sequence,PBM E-score
1,TCGTCAGA,-0.0483
2,GGCGAGGA,-0.0575
3,AGGATAGG,-0.0752
4,GAGTTATA,-0.0595
5,GCGGCAAC,-0.145
6,ACATGCGA,0.0948
7,GCTATCCA,-0.146
8,GCGAGAGA,-0.11
9,CGTTAGAG,-0.0334
10,ATGTGGTA,0.0238
11,GAGGACAC,0.398
12,ACCTCCAC,-0.239
13,ACTGATCT,-0.0345
14,CAGCACTC,-0.0524
15,ATCGGGTC,0.0173
16,ATTCTTAA,0.00993
17,CCGGGAAC,-0.0326
18,CCCTTGCC,-0.258
19,CATCGCCG,-0.132
20,ACCCCTTC,-0.234
21,CCACCGGC,-0.226
22,GATTTTGC,-0.129
23,GCGACACC,-0.0671
24,CGTCTTTA,0.125
25,CGAATTGC,0.0894

row,Sequence,PBM E-score
1,AGGTACCG,-0.085
2,GGACTATA,-0.0918
3,GAATCTGC,-0.134
4,TCGCGGAA,0.118
5,CCGACCGA,-0.117
6,CTACCCCC,-0.397
7,GAGCCGCA,-0.165
8,ATTAGCAC,-0.0652
9,GGACTGCC,-0.185
10,ACAGCGCA,-0.0465
11,ATACGGAT,-0.0481
12,ATCCGGCG,0.0331
13,AGTTTACA,0.0257
14,AGCTACAG,-0.256
15,AAATCCAT,0.12
16,ATGTGAAT,0.023
17,CCAAGCGC,0.00958
18,AAAGAAGC,0.0953
19,CCTCCTTC,-0.359
20,CCGACTCC,0.0391
21,GGTAATCA,0.0578
22,TAAAAGGA,0.156
23,CTTGCGTC,-0.0529
24,GACGTGGA,0.0663
25,AAGTAGCC,-0.0783

row,Sequence,PBM E-score
1,GCGAATTA,0.0826
2,AGAGAGAC,-0.0618
3,AACATTTC,0.0651
4,ACAATTGG,0.105
5,GAGCTTGC,-0.243
6,GACGCGCA,0.0562
7,AATGACGC,0.0958
8,AGTGAGCA,-0.138
9,ATCGAGAG,-0.0865
10,TATCATAA,0.0748
11,CGAACCGC,0.0556
12,CGACGCGC,0.166
13,AGGGGTAA,-0.205
14,AACACCGG,0.115
15,CGAGGCGC,-0.0872
16,AACCGGGG,-0.168
17,CCTGTAGC,-0.205
18,CTCTGGGC,-0.187
19,GCCTTAAC,-0.117
20,AGAGCGTA,-0.221
21,CTTGTGCA,-0.00054
22,ACCCTACC,-0.0991
23,TACGATGA,-0.0286
24,CCACTGAC,-0.0384
25,GATATCAC,-0.0842

row,Sequence,PBM E-score
1,CGTTGCAC,-0.0751
2,AATTCGAC,-0.242
3,ACAGTTCG,0.0949
4,CGCACCGA,-0.0211
5,CCGTTTCG,-0.0884
6,ACAAGCTC,0.0907
7,CGAAGGAC,0.106
8,CACTGTCG,-0.198
9,GGCCAGCC,-0.275
10,AATCAGAA,-0.0428
11,GGACTGAC,-0.0899
12,ATCTCCAT,0.0448
13,AATTTGAG,0.017
14,ATTTATTA,0.132
15,TTTGAAAA,0.222
16,GACTAGTA,-0.0872
17,ACTATTTC,0.101
18,ACCCCCCG,-0.207
19,TCCATCCA,-0.00245
20,TCCTTCAA,-0.0355
21,ACGATGTG,0.0996
22,CATTCTCC,0.0977
23,AGCTACGA,-0.11
24,AAGGCGGG,-0.293
25,CTCAGCCC,-0.302

row,Sequence,PBM E-score
1,GTCGCTCA,-0.0121
2,TCTGTACA,0.172
3,CCTAGTCC,-0.0342
4,AGATCTGA,0.0378
5,ACGCGTCG,0.203
6,CGATTTTC,0.0625
7,CGCGTGTA,0.114
8,CCTCTGCG,-0.147
9,AGTATTGA,0.0166
10,AAACGACA,0.178
11,ACGTAAAG,0.0462
12,GATAGATA,0.0784
13,GATCAGGA,-0.11
14,ACAGGACT,-0.0485
15,AAGATGGT,-0.068
16,GATTGCAC,0.0495
17,CGAATTGA,0.0333
18,TGTGAAAA,0.139
19,AAGGAACT,0.0303
